# From article PMC12136788
# The other results are listed elsewhere or left out.
# B1: chr1:228494639:228494729:+|3pUTR|ENSG00000168159|msi1_unk|FALSE|overlapping (ssRNA)
# RNA: GGGAGUUCUACAGUCCGACGAUCGCCAUCGUGUCUCAUCUUGCUGUUAUCUCUAGCUCUUUCCCUCCUCCCAUUUCCUUUAGUAGUUGAAUUUUGCAAAGCUUGUAGCAGUAGCUCAGUUGCCUGCAGCAUCCUUGUGUGUAGCAACAGAGGAUUGAGCAUCA
# B2: chr18:67510860:67510961:-|3pUTR|ENSG00000171451|msi1|total|mutant (ssRNA)
# RNA: GGGAGUUCUACAGUCCGACGAUCACUAAUAAUACUUACCAACCCACUUUGUGGAUAUGAAUCAGAAGAGUUUGUUUAUUCUUCCGUGUGUGUGUGUGUGUGCACGCGUGUAUGUGUUCAGUGUUGUUUGCACAGAGAGAUUGUCAACAGAGGAUUGAGCAUCA
# B3: chr1:203741488:203741589:+|3pUTR|ENSG00000058668|msi1|FALSE|unique (ssRNA)
# RNA: GGGAGUUCUACAGUCCGACGAUCGCCAGUUCAUGUCCCUGACUCUCACCUCCCAUUAGAUAAAUGAAGCCCACCCCCCUUUCUAGAGUGAUGAGAGUCAAGAAGAGGGGAUGUAUGAACGGCCAAAUUCCCAUGUGAGAGGAACAACAGAGGAUUGAGCAUCA
# B4: ENSG00000070961:be:win_5201|3pUTR|ENSG00000070961|bound_else_gene|NA|bound_elsewhere_windowed (ssRNA)
# RNA: GGGAGUUCUACAGUCCGACGAUCUUUAGAUGCAAUAAUUAACCAUAUGCUAGAAUGCCCACCUCUAAGCCAAUUGGAUUCUUUAGCUCUCUUUUUCUUUCCUUCAUCUACCUUCUUCUCUUUUUUGCCUCUGUCUUUACCCUUCAACAGAGGAUUGAGCAUCA
# B5: chr3:98799561:98799662:-|CDS|ENSG00000057019|msi1|total|mutant (ssRNA)
# RNA: GGGAGUUCUACAGUCCGACGAUCUUCAGUUGGUCAGCCCUCCACAUCCACUUUCAAGGCUACGGGGAACCAACCUCCCCCACCCGUGGGAACUUACAAUACACUUCUCUCCAGGACUGACAGCUGCUCCUCAGCCCAGGCCCACAACAGAGGAUUGAGCAUCA
# B6: ENSG00000115464:stop:overlap|stop_codon|ENSG00000115464|stop_codon|NA|stop_codon (ssRNA)
# RNA: GGGAGUUCUACAGUCCGACGAUCUCAGAAAGGAACAUACUCUCAAAAUAUUUACUUAUAUCAAUUCCUGGACACAGAGGAUGUAGAAGUACCAUUGCAUUUGCUUCGUUAUGUAUGUUUGUUUUGUGGGAAAAAUGGCCUUUCCAACAGAGGAUUGAGCAUCA
# B7: chr1:61462620:61462721:+|3pUTR|ENSG00000162599|unk|FALSE|unique (ssRNA)
# RNA: GGGAGUUCUACAGUCCGACGAUCCUGUGGGCGUCCAUUCUUAUUCAACUAAAUCUCCACAGGUUUUUUGAGCUGGUGUGGAUUAGUUUAACUCUUGUAUUCAACCAUUAGUGCUACCACCUUCUCACAUUACAAUACAAUUACCAACAGAGGAUUGAGCAUCA
# B8: chr1:235808650:235808751:-|CDS|ENSG00000143669|unk|FALSE|unique (ssRNA)
# RNA: GGGAGUUCUACAGUCCGACGAUCUGGAAAUGGGAUGCUUUAAAGGCUUAUCAGAACUUUGUUUUUGAAGAAGACAGAUUACAUAGUAUACAGAUUGCAAAUCACAUUUGCAAUUUAAUCCAGAAAGGCAAUAUAGUUGUUCAGCAACAGAGGAUUGAGCAUCA
# B9: chr4:76160418:76160736:-|3pUTR|ENSG00000138760|msi1|FALSE|unique (ssRNA)
# RNA: GGGAGUUCUACAGUCCGACGAUCAGUUCCUUCCUCAGUUUCAGUUCUUUCCAGUGUUUUGUAGCUCACUGUCACUCACUGAAUAGAGAAACGUGUGCCCUAUACUUCCUGUGACAAUCAUUUUGCUGACAGAAUGAUGGAUGUCAACAGAGGAUUGAGCAUCA
# B10: chr15:38352922:38353023:+|3pUTR|ENSG00000166068|msi1|FALSE|unique (ssRNA)
# RNA: GGGAGUUCUACAGUCCGACGAUCUACAUAUAAAUUUAUUUCUUUUGCAGAGCAUUAUAUUACUGGAUGUUUAAUUUACAAAAUAGUUGGGUAAAUGUUCCAACAAACUUUAAAGUACCUUGAAGUCAAAUUGUCUGUUUUUGUCAACAGAGGAUUGAGCAUCA
# B11: chr13:49308649:49310813:-|three_prime_utr|ENSG00000102547|control|control|control (ssRNA)
# RNA: GGGAGUUCUACAGUCCGACGAUCGUCAUCAUUCUUGGGAAGACUUUGGAGGUGCCUAUUUUUUCUGCUGUAAUUGUUCUGGGUAGAUGGAGUAUAAACAUUUGAAUGGAAAAAAAUUAACCUAGAAUAAUAUAUUCAUUUUAGCAACAGAGGAUUGAGCAUCA
# B12: chr11:119314942:119315043:-|CDS|ENSG00000076706|msi1|total|mutant (ssRNA)
# RNA: GGGAGUUCUACAGUCCGACGAUCGGGAGACUCUGCCCCUCUUGCCGCCCAGGACCCUUCUCCUCCUCUGUGUCUCCUCCCAUCCGGUCCACAAGGAGAAGCGGACGCUCAUCUUCCGUGUGCGCCAGGGCCAGGGCCAGAGCGCAACAGAGGAUUGAGCAUCA
# B13: chr19:54923508:54923872:-|three_prime_utr|ENSG00000167634|control|control|control (ssRNA)
# RNA: GGGAGUUCUACAGUCCGACGAUCCGGGAUUCGGGUCUCUAAGAUGUCUUAUGAAUGCAGGUCAGAGGGUCACAUGUUAACACUAGAGUCUGUCGAGAGGUAGGAUUUGACACUGGUUUUCUCACUAUUUUUGGGAGAUUCUGCCAACAGAGGAUUGAGCAUCA
# B14: chr9:130136078:130136182:+|3pUTR|ENSG00000148358|msi1_unk|FALSE|overlapping (ssRNA)
# RNA: GGGAGUUCUACAGUCCGACGAUCAGUCCAAGCAAAUCAUCCCCAUUAAAAAGCUUUUCCUGUAGGCUAGUAGGAUUUCUAAAUAGAUGAAUUCAACAGACUUGGUCCCCAUAGUCCAAGAGUAUGUAUGUGAAGAAAGUGAGCCAACAGAGGAUUGAGCAUCA
# B15: chr10:128104542:128104643:-|CDS|ENSG00000148773|msi1|total|mutant (ssRNA)
# RNA: GGGAGUUCUACAGUCCGACGAUCAAGUGAUGAGAAAAAUAUCAACACAUUUGUGGAAACUCCAGUGCAGAAACUGGACCUGCCCGGAAAUUUACCUGGCAGCAAGAGACAGCCACAGACUCCUAAGGAAAAGGCUGAGGCUCUCAACAGAGGAUUGAGCAUCA
# B16: chr4:17843545:17843646:+|3pUTR|ENSG00000109805|msi1|total|mutant (ssRNA)
# RNA: GGGAGUUCUACAGUCCGACGAUCCUGUGCGCUUCCACGUUACUUUGGCCUGUAUUAAAGCAGCCGAGCAGCAUCAGUUAUUACCGUCCAGAAAAAGUGUGCAUCAGUCAGUCACACAGAUUUAUCACAAUCUGAGGUGGGCCUCAACAGAGGAUUGAGCAUCA
# B17: chr6:122453778:122453910:-|CDS|ENSG00000111897|unk|FALSE|unique (ssRNA)
# RNA: GGGAGUUCUACAGUCCGACGAUCCCUUUCAGUGUGGUUUUAUGUAGGCAUGGCAGGUGCCUUUUGUUUCAUCCUCAUACAACUAGUCUUACUUAUUGAUUUUGCACAUUCAUGGAAUGAAUCGUGGGUUGAAAAAAUGGAAGACAACAGAGGAUUGAGCAUCA
# B18: chr7:65954205:65954306:+|CDS_3pUTR|ENSG00000196715|msi1_unk|FALSE|overlapping (ssRNA)
# RNA: GGGAGUUCUACAGUCCGACGAUCCAUCUGCAUCGUCACGUACGUGCUGAACUUCCUUCUUCUCAUUAUCAACUACAAACGACUAGUUUACUUGAACGAGGCCUGGAAGCGGCAGCUGCAACCCAAGCAGGACUGACGCCCGACCAACAGAGGAUUGAGCAUCA
# B19: chr19:57572896:57572997:-|CDS|ENSG00000083817|unk|total|mutant (ssRNA)
# RNA: GGGAGUUCUACAGUCCGACGAUCCAUCGGAGAAUCCACACUGGAGAAAGGCCUUAUGUGUGUGGUCAGUGUGGGAAAUCAUUCCGCCAAAGAGCCACCCUCAUUAAACAUCACAGAGUUCACACUGGAGAAAGGCCUUACGAGCAACAGAGGAUUGAGCAUCA
# B20: chr1:89935720:89935824:+|3pUTR|ENSG00000171492|msi1|total|mutant (ssRNA)
# RNA: GGGAGUUCUACAGUCCGACGAUCUACAAGAUAAUGCAUUUCCGGAGCCGAUACAUCUUUUAAAAUAAAACAGAGAGGAUGCACCGAAGGCUGACCGAAGACAUAACUGAAUGUUCAAUGUUUGCCGGGUUUUAAGUCAUUCAUCAACAGAGGAUUGAGCAUCA
# B21: chr18:9283235:9283336:+|3pUTR|ENSG00000101745|msi1|total|mutant (ssRNA)
# RNA: GGGAGUUCUACAGUCCGACGAUCCUGAUGGUUCAACCAGAGGUCUGGGAAACCGCACUGUUGGCCCAAACAGAACAGGCUUUCCGAAGAUAAAAGCGACAAGAAGGAAUCUGGUGAAUUUCCGUCAUCCCAGCUUUUCCGUCUCAACAGAGGAUUGAGCAUCA
# B22: chr18:9859767:9859850:+|3pUTR|ENSG00000168461|msi1_unk|total|mutant (ssRNA)
# RNA: GGGAGUUCUACAGUCCGACGAUCUUGUUACCUAACCAACCUUCACUGAAAGGCAAAUUCCGUUCAGGAGGUCCGUUUUCCGCCCGCUUUGGAAGUAAGCCUUUAUUUAUUACUUUUUGGAGGAAAUCAGAGAAGUGUCAAUGGCAACAGAGGAUUGAGCAUCA
# Target: MSI1 full-length (mouse, UniProt Q61474 1-362)
# Test: nsRBNS (natural sequence RNA bind-n-seq); RBNS binding buffer (assumed for nsRBNS): 25 mM Tris pH 7.5, 150 mM KCl, 3 mM MgCl2, 0.01% Triton X-100, 500 ug/ml BSA, 20 U/ml SUPERase-In, 4 C; UNK is unkempt and MSI1 is Musashi-1; names of the RNAs are library labels; protein concentration not given here; high values mean tight binding
# Chain of UniProt Q61474 (Q61474 whole entry): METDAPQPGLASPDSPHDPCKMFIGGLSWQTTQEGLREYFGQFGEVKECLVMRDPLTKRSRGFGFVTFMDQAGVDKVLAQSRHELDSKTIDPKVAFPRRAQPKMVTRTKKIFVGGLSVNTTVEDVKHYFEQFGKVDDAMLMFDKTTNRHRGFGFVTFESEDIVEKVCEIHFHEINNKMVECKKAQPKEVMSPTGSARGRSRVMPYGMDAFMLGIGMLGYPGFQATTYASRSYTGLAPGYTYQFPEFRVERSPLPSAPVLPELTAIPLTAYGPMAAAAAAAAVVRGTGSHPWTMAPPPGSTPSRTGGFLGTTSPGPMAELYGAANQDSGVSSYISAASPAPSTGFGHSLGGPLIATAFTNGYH
row,Binder,binding signal
1,B1,21.5 enrichment R
2,B2,0.341 enrichment R
3,B3,1.45 enrichment R
4,B4,5.72 enrichment R
5,B5,0.482 enrichment R
6,B6,2.23 enrichment R
7,B7,3.44 enrichment R
8,B8,0.77 enrichment R
9,B9,0.321 enrichment R
10,B10,5.24 enrichment R
11,B11,1.23 enrichment R
12,B12,0.721 enrichment R
13,B13,0.551 enrichment R
14,B14,4.96 enrichment R
15,B15,0.365 enrichment R
16,B16,0.782 enrichment R
17,B17,0.637 enrichment R
18,B18,0.633 enrichment R
19,B19,0.303 enrichment R
20,B20,0.273 enrichment R
21,B21,0.296 enrichment R
22,B22,0.376 enrichment R
